Experimental data: ChEMBL document CHEMBL4888484, “Replenishing the malaria drug discovery pipeline: Screening and hit evaluation of the MMV Hit Generation Library 1 (HGL1) against asexual blood stage Plasmodium falciparum ,using a nano luciferase reporter read-out” (2022)
Hit rate of the full screen: of about 150,000 compounds, about 540 (0.36%) showed an effect of 50% or more. This is one part of the list.

The compounds below were run on Plasmodium falciparum (assay: Primary screen in NF54 nanoGlo assay, in single point, at 2uM, 72h; a lower Z score goes with more inhibition). Details: timepoint 72 hour.
Assay type: functional, Erythrocyte

| SMILES | % Inhibition | Z score |
| --- | --- | --- |
| CCN(CC)C(=O)Cn1cc(C(=O)NCCc2ccncc2)nn1 | 7% | -1.33 |
| Cc1c(-c2ccccc2)nn(C)c1NC(=O)N1CCC(F)(F)CC1 | -18% | 1.81 |
| Cc1ccccc1CCC(=O)N1CC(n2ccnn2)C1 | 5% | -0.57 |
| N#Cc1ccccc1CO[C@]1(C(=O)NC2CC2)CC(OCc2ccccc2F)[C@H](O)[C@H](O)C1 (some centres undefined) | -1% | 0.12 |
| OCC1([C@H](NCc2ncccc2Cl)c2ccccc2)CC=CC1 | 0% | -0.04 |
| Oc1ccc2ccccc2c1-c1nc([C@H]2CCOC2)no1 | 7% | -0.99 |
| O=C(c1cnn2c(C(F)(F)F)cc(-c3ccco3)nc12)N1CCC[C@H]1c1ccccc1F | -6% | 1.17 |
| CN(CCc1ccccn1)c1ncccc1CNc1ncccc1C#N | 0% | 0 |
| CCOc1ccc(-c2c[nH]c(-c3ccc(S(C)(=O)=O)cc3)n2)cc1 | -7% | 0.95 |
| CCC(NC(=O)N1CCOC(c2ccsc2)C1)c1cccs1 (centres undefined) | -3% | 0.38 |
| COc1ccccc1N1CCN(C(=O)c2ncn(-c3ccc(C)cc3)n2)CC1 | -7% | 0.66 |
| COC(=O)c1cc(-c2cccnc2)nc2c1c(C)nn2CCC#N | -1% | 0.13 |
| CCS(=O)(=O)CCNC(=O)c1cnc(C)s1 | -2% | 0.19 |
| CN1CC2(CCN(c3nccnc3N(C)C)CC2)C[C@@H](c2ccccc2)C1=O | -3% | 0.38 |
| Cc1nc[nH]c1CN1C[C@H]2CC[C@@H](C1)N(Cc1ccc(-c3cc[nH]n3)o1)C2 | -10% | 1.66 |
| O=C1NC[C@H]2O[C@H](CCOc3ccccc3C(=O)N3CCN(C4COC4)C[C@@H]13)CC[C@H]2n1cc(CN2CCOCC2)nn1 | -1% | 0.18 |
| CC[C@@H]1Oc2ccc(S(=O)(=O)N3CCN(C(=O)c4ccc(F)c(F)c4)CC3)cc2NC1=O | -9% | 0.86 |
| C[C@H](NCc1nccc(N)n1)c1cc2ccccc2o1 | -6% | 0.65 |
| Fc1cccc2nc(NCCc3nnc(C4CCOCC4)[nH]3)oc12 | -11% | 1.08 |
| Cc1cc(-n2cncn2)ccc1C(=O)N1CCC2CN(C(=O)OC(C)(C)C)CC2C1 (centres undefined) | -17% | 1.94 |
| COc1ccccc1Nc1ncnc2sc(C)c(S(=O)(=O)N3CCCCC3)c12 | -5% | 0.91 |
| COc1ccc(OC)c(S(=O)(=O)N2CCOCCNC(=O)[C@H]3CCCC[C@H]32)c1 | 2% | -0.29 |

| SMILES | % Inhibition | Z score |
| --- | --- | --- |
| Cc1c(N2CCOCC2)c(C)n(Cc2ccc(F)c(F)c2)c1C(=O)NC(C)(C)C | -5% | 0.54 |
| COC(C)c1nc(CN2CCCC2C(O)C(F)(F)F)cs1 (centres undefined) | -5% | 0.44 |
| CCC(=O)NCc1nc2c(n1C)CN(S(=O)(=O)c1cccc(F)c1)CC2 | -9% | 1.03 |
| CC(=O)c1ccc(Oc2nc(-c3ccccc3)cc(-c3ccccc3)n2)cc1 | -3% | 0.47 |
| CCc1cc(OC)ccc1CN(C)[C@H]1C[C@@H](OC)C1 | -5% | 1.01 |
| Cc1noc(C)c1COc1cccc[n+]1[O-] | 7% | -0.74 |
| OCc1ccc(-c2nc(C3CC3)nn2-c2ccc(F)cc2F)o1 | -6% | 1.18 |
| CC(C)CC(CNC1CC2CC1C1CCCC21)C(=O)O (centres undefined) | -3% | 0.3 |
| NS(=O)(=O)Cc1cccc(Cl)c1 | -21% | 2.7 |
| Cc1cnccc1NC(=O)N1CCC[C@H](c2cc(F)ccc2F)C1 | -14% | 2.66 |
| CCC(CNS(C)(=O)=O)NC(=O)N1CCCC(C2CCCCC2)C1 (centres undefined) | 5% | -0.74 |
| O=C(NC1CCCC(CO)C1)C(O)C1CCC1 (centres undefined) | -9% | 1.64 |
| c1csc(C2CCCN2c2nnc(C3CCOC3)n2CC2CCCO2)c1 (centres undefined) | -3% | 0.43 |
| COc1ccccc1CC(=O)NCc1nnc(N)s1 | 5% | -0.69 |
| CC(C)=CC1C(C(=O)N2CC(O)C2)C1(C)C (centres undefined) | -9% | 1.63 |
| O=C(c1ccc(Cl)cn1)N1CCC(Cn2ccnc2)CC1 | -18% | 1.77 |
| CCn1ncc(Br)c1C(=O)Nc1cccnc1N(C)C | -4% | 0.76 |
| O=C(Nc1scnc1-c1ccccc1)N[C@H]1CCCn2ncnc21 | -4% | 0.46 |
| COc1cc2c(cc1OC)CN(C(=O)CNC(=O)c1cccnc1)CC2 | 12% | -1.95 |
| CO[C@H]1CCOC[C@@H]1NC(=O)c1ccnn1C(C)C | 0% | -0.03 |
| CCN(CC)Cc1cc(C(=O)NCc2csc(C)n2)c(C)o1 | -1% | 0.16 |
| O=S(=O)(c1ccc2c(c1)OCCO2)N1CCN2CCCC[C@H]2C1 | 12% | -1.14 |

| SMILES | % Inhibition | Z score |
| --- | --- | --- |
| NC(=O)c1ccc(-c2ccc(C(=O)N[C@H]3CC[C@H](O)CC3)cc2)o1 | 4% | -0.76 |
| CNC(=O)CC(NC(=O)[C@H](C)NS(=O)(=O)c1ccc(Cl)cc1)c1ccccc1 (some centres undefined) | -4% | 0.6 |
| CCN(Cc1nc2ccccc2c(=O)[nH]1)C(=O)[C@H]1NCC12CCCC2 | -1% | 0.12 |
| O=C(Nc1ccc(N2CCC(Cc3ccccc3)CC2)cc1C(=O)O)c1ccc(F)cc1 | 30% | -4.31 |
| Cc1cc(C(=O)N2CCCC2)c(C)n1-c1ccc(O)cc1 | -15% | 2.28 |
| CCc1nc(CCNC(=O)Cc2sc(N)nc2C)no1 | -22% | 2.33 |
| Cc1ccc(N(CCC(C)(C)O)C(C)C)cc1 | -13% | 1.5 |
| Cc1ccccc1C(=O)Nc1ccccc1-c1ccccc1NC(=O)c1ccccc1C | 3% | -0.45 |
| c1nc2c(c(N3CCOCC3)n1)CNCC2 | -6% | 0.98 |
| CC(C)c1nnc(CCC(=O)N2CC(C)N(C)CC2C)o1 (centres undefined) | -7% | 0.65 |
| COCC1(C(=O)OC(C)(C)C)CCCN1CC(O)COC(C)C (centres undefined) | 3% | -0.43 |
| CN(C)c1nc(-c2cn[nH]c2)ncc1F | -1% | 0.13 |
| NC(=O)NC(=O)COc1ccc(Br)cc1 | 32% | -0.64 |
| COc1cc(N2CCC[C@H](c3nc(C(C)C)no3)C2)nc(N)n1 | -2% | 0.28 |
| CN(C)C(=O)[C@@H]1CN(c2ccncc2F)CCO1 | 4% | -0.76 |
| CC(C)c1nc(CN(C)C(=O)Cc2c[nH]c(=O)[nH]c2=O)no1 | -13% | 2.57 |
| CCNc1ncc(C(=O)N2CCC[C@H](c3nccn3CC3CC3)C2)cn1 | -25% | 2.63 |
| CN(CCc1ccccn1)c1ccc(Cl)cn1 | 3% | -0.4 |
| CCNC(=O)c1ccc(NC(=O)c2c[nH]c(C)n2)cc1 | 15% | -1.91 |
| COCCN(Cc1cc(Cl)ccc1OS(C)(=O)=O)C(=O)C(C)C | -7% | 1.09 |
| O=C(CNC(=O)OCc1ccccc1)NC1CCN(c2cc3c(nn2)CCCC3)CC1 | -24% | 4.13 |
| Cn1nccc1CNC(=O)c1ccc(CN2CCCCC2=O)cc1 | -4% | 0.61 |

| SMILES | % Inhibition | Z score |
| --- | --- | --- |
| CC(C)CCC(=O)N[C@H]1CC(=O)N(Cc2cccc3ccccc23)C1 | -8% | 1.53 |
| N#Cc1cnn2c(NC3CCCCCC3)c(-c3cccc(Cl)c3)[nH]c12 | -16% | 2.28 |
| COC1(c2noc(-c3ccc4c(c3)ncn4C)n2)CCCC1 | -9% | 1.76 |
| Cc1noc(C)c1C(C)(C)C(=O)N[C@@H](C)c1ccncc1F | -11% | 0.94 |
| CC[C@]1(C(N)=O)CCCN(C(=O)c2cc(C)n(CCCOC)c2C)C1 | -10% | 1.34 |
| Oc1ccccc1/C=C/c1nc(-c2ccccc2O)n(-c2ccccc2)n1 | -8% | 0.88 |
| CC(C)OCCS(=O)(=O)N1CC2CCCC2C1 (centres undefined) | -8% | 1.21 |
| O=C(OCc1ccccc1)N1CC[C@H](OCC2CC2)C1 | -6% | 0.87 |
| O=C(NCc1cccnc1N1CCOCC1)NC1CCCC1 | -5% | 0.55 |
| O=S(=O)(C[C@H]1CCCCO1)NCc1noc(-c2ccccc2)n1 | -3% | 0.51 |
| O=C(Cn1cncn1)N1CCN(Cc2ccc3c(c2)OCO3)CC1 | 2% | -0.16 |
| Cc1cc(C(=O)NCC2CC(O)CN2Cc2ccccc2)n(C)n1 (centres undefined) | -9% | 1.34 |
| CC(O)CC1COCCN1C(=O)NC1CCCc2ccc(F)cc21 (centres undefined) | -9% | 0.91 |
| O=C(O)c1sccc1CN1CC[C@H](c2ccccc2)[C@H](CO)C1 | -2% | 0.34 |
| COCCc1nc(-c2cccnc2)n(Cc2ccccc2C)n1 | 1% | -0.26 |
| COCCN1C(=O)CC(CC(=O)N2CC3CCC2C3)(c2ccccc2Cl)C1=O (centres undefined) | 10% | -1.26 |
| Cc1ccc(CNC(=O)N(C)[C@H]2CCc3nn(CC4CC4)c(=O)n3CC2)cc1 | -10% | 1.59 |
| CC[C@@H](C(=O)Nc1cc(C)ns1)N(C)C | -5% | 0.53 |
| CCN1CCN(C(=O)c2c(C)oc3ncn(CC(C)C)c(=O)c23)CC1 | -3% | 0.57 |
| CCN(Cc1noc(C)n1)C(=O)c1ccc([C@@H]2CCCN2)s1 | -7% | 1.11 |
| O=c1c2cc(-c3ccc4c(c3)OCO4)nn2ccn1Cc1c(F)cccc1Cl | -8% | 1.07 |
